Measured values: PubChem BioAssay AID1346428 (National Center for Advancing Translational Sciences (NCATS), 2018)
Values joined by “and” are separate entries in the source; they are usually repeats but may differ in a detail not shown here. Equal values may be shown once. The campaign covered roughly 48,000 compounds. About 1,200 (2.5%) were called active. Another 2% or so got no clear call; they are omitted.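 Rule for the calls: active = activation of at least 60% and not above a set upper limit (about 1 call in 100 departs from these limits); inconclusive = activation of 40% to 60%, or above that upper limit; inactive = activation under 40%.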 The list shows a part of the results.
Note: 0% is about no effect.

Each molecule was assayed against Probable G-protein coupled receptor 32 (Homo sapiens) (UniProt O75388) (assay: qHTS for Agonists of Human Resolvin D1 Receptor DRV1). Settings: CHO-K1 GPR32 beta-arrestin PathHunter luminescence, 90 min; at 76.9 µM; hits give high values; zero percent set by DMSO-only wells.
UniProt O75388, sequence (O75388 whole entry, looked up): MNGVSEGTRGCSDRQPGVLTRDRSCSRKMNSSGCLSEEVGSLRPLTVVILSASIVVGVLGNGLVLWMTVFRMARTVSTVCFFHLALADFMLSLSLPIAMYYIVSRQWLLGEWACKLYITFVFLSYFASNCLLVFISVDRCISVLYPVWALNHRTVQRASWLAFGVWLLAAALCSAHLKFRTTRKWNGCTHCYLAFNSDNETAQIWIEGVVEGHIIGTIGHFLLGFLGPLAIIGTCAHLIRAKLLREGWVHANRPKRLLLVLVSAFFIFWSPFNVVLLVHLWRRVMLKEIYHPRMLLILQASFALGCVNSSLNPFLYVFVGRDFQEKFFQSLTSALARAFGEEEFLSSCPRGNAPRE
Method in brief: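 Luminescent readout of beta-Gal complementation quantifies ligand-induced beta-arrestin association with GPR32 in CHO-K1 cells; 90 min compound incubation at 37 °C, detection 1 h at room temperature.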
In the case of `CCC(=O)N1CCc2cc(Br)cc(S(=O)(=O)CCC(=O)N3CCN(c4ccccc4OC)CC3)c21`, the activation is reported as inactive: -4.97%.
For `COc1ccccc1N1CCN(S(=O)(=O)c2ccc3[nH]c4c(c3c2)CCCC4)CC1`, the activation was inactive: -5.6%.
`CCOc1cc(-c2nnc(SCC(=O)NCc3ccccc3)nc2-c2ccc(OC)c(OCC)c2)ccc1OC` was tested, and the activation was inactive: -24%.
With `COc1ccc(/C=C\c2onc(C)c2S(=O)(=O)N2CCC(C(=O)Nc3ccc(Cl)cc3)CC2)cc1` the activation was inactive: -15.5%.
In the case of `COc1ccc(C(=O)N2CC(=O)Nc3ccc(C)cc3C2c2ccccc2)c(OC)c1` (configuration not stated), the activation is reported as inactive: -12.6%.
In the case of `Cc1ccc(-n2ncc(C(=O)N3CCCCC3)c2C2CCN(C(=O)OC(C)(C)C)CC2)cc1C`, the activation is reported as inactive: -3.98%.
In the case of `CCc1ccc(NC(=O)C2CCCN(S(=O)(=O)c3ccc4c(c3)CCCN4C(C)=O)C2)cc1` (configuration not stated), the activation is reported as inactive: -8.41%.
With `CC(=O)Nc1ccccc1OCc1cc(=O)n2c3c(sc2n1)CCCC3` the activation was inactive: 4.31%.
With `Cn1c2ccccc2c2cnn(CC(=O)NCc3ccc(Cl)cc3)c(=O)c21` the activation was inactive: -16.6%.
With `COc1ccc2[nH]c(=O)c(CN(C(=O)c3cccc(Cl)c3)c3ccccc3OC)cc2c1` the activation was inactive: -15.1%.
For `CS(=O)(=O)N1CCc2cc(S(=O)(=O)NCc3ccccc3Cl)ccc21`, the activation was inactive: -2.78%.
In the case of `COc1ccc(S(=O)(=O)NCCc2csc3nc(-c4ccc(Cl)cc4)nn23)cc1C`, the activation is reported as inactive: 30.1%.
With `Cc1cccc(Cn2c(C)c(C)c3cc(C(=O)NCc4ccco4)ccc32)c1` the activation was inactive: -23.5%.
For `Cn1cnc(S(=O)(=O)N2CCC(C(=O)NCc3ccccc3)CC2)c1`, the activation was inactive: -2.64%.
`CC1=C(c2ccc(F)cc2)S(=O)(=O)N=C1N1CCC(C(=O)NCCc2ccco2)CC1` was tested, and the activation was inactive: -2.04%.
With `Cc1ccc(Sc2c(C)nn(C(=O)COc3ccccc3)c2C)cc1` the activation was inactive: 18.3%.
`COc1ccc(-c2nc(Cn3c(SCc4cccc(Cl)c4)nc4ccncc43)c(C)o2)cc1` was tested, and the activation was inactive: 7.23%.
`Cc1cccc(-n2c(-c3ccco3)nc3c(cnn3-c3ccccc3C)c2=O)c1` was tested, and the activation was inactive: 11.6%.
`Cc1ccc(C(c2sc3nc(-c4ccco4)nn3c2O)N2CCOCC2)cc1` (configuration not stated) was tested, and the activation was inactive: 17.8%.
For `COc1ccccc1NC(=O)CSc1nc2ccccc2c(=O)n1CCC(=O)NC1CCCCC1`, the activation was inactive: 12.7%.
With `O=C(CN1CCN(Cc2ccc(F)cc2Cl)S1(=O)=O)Nc1ccc(F)cc1` the activation was inactive: 5.22%.
`CCOC(=O)c1c(S(=O)(=O)N2CCCC(C(=O)N(C)Cc3ccccc3)C2)c(C)n(C)c1C` (configuration not stated) was tested, and the activation was inactive: 40.4%.
`COc1cc(NC(=O)Cn2ccn(Cc3ccccc3OC)c(=O)c2=O)cc(OC)c1` was tested, and the activation was inactive: 2.76%.
In the case of `COC(=O)c1cc2c(cc1NC(=O)c1c(C)nn(-c3ccc(C)cc3)c1-n1cccc1)OCO2`, the activation is reported as inactive: -12.6%.
`CCOc1ccc(NC(=O)Cn2c(=O)oc3cc(S(=O)(=O)NC4CCCC4)ccc32)cc1` was tested, and the activation was inactive: 17.3%.
With `Cc1ccc(NC(=O)Cn2c(C)cc(C)c(C#N)c2=O)cc1` the activation was inactive: -6.79%.
With `CCN(CC)CCOC(=O)C1(C2CCCCC2)CCCCC1` the activation was inactive: -9.58%.
`CCCCOCCOCCOCc1cc2c(cc1CCC)OCO2` was tested, and the activation was inactive: 38.2% and inactive: -5.66%.
For `Cc1ccccc1NC(=O)C1CCC(CNS(=O)(=O)c2ccc3c(c2)C(C)(C)C(=O)N3C)CC1` (configuration not stated), the activation was inactive: -2.89%.
For `Oc1ccccc1`, the activation was inactive: 4.84%.
With `CCOc1ccc(CCNC(=O)c2cn(C)c3ccc(S(=O)(=O)N4CCOCC4)cc3c2=O)cc1OCC` the activation was inactive: -8.16%.
`Cc1cc(NS(=O)(=O)c2ccc(NC(=O)c3ccccc3F)cc2)nc(C)n1` was tested, and the activation was inactive: -33.4%.
`Cc1ccc(-n2ncc3c(N(C)Cc4ccccc4)ncnc32)cc1` was tested, and the activation was inactive: 5.03%.
In the case of `CCc1ccc(NC(=O)Cn2c(=O)n(Cc3nc(-c4ccccc4)no3)c(=O)c3cc4c(cc32)OCO4)cc1`, the activation is reported as inactive: -0.032%.
In the case of `COc1ccc(S(=O)(=O)N2CCC(c3ccncc3)CC2)cc1OC`, the activation is reported as inactive: 7.95%.
In the case of `O=C(c1ccco1)n1nc(-c2ccc(Cl)cc2)nc1NCc1ccccc1`, the activation is reported as inactive: -7.92%.
For `Cc1ccc(N2C(=O)NC(NS(=O)(=O)c3ccc(Cl)cc3)(C(F)(F)F)C2=O)cc1C` (configuration not stated), the activation was inactive: 13.4%.
In the case of `CCCC(=O)N1CC(=O)Nc2ccc(Cl)cc2C1c1ccccc1` (configuration not stated), the activation is reported as inactive: -13.9%.
With `CCC(Sc1ncnc2sc3c(c12)CCCC3)C(=O)OC(C)C` (configuration not stated) the activation was inactive: -12.9%.
In the case of `COc1ccc(S(=O)(=O)NCC(c2ccc(N(C)C)cc2)N2CCc3ccccc32)cc1` (configuration not stated), the activation is reported as inactive: -19.5%.
For `Cc1cccc(C(=O)Nc2ccc(C(=O)OCc3cc(=O)n4nc(C5CC5)sc4n3)cc2)c1`, the activation was inactive: -5.91%.
`COc1ccccc1N1CCN(C(=O)CCc2nnc3n(C)c(=O)c4sccc4n23)CC1` was tested, and the activation was inactive: 15.1%.
In the case of `COCCNC(=O)CSc1cn(CC(=O)N2CCCCCC2)c2ccccc12`, the activation is reported as inactive: -24.8%.
With `CCOc1ccc(OCC)c(NC(=O)C2CCN(S(=O)(=O)c3cn(C)cn3)CC2)c1` the activation was inactive: -12.5%.
In the case of `Cc1ccc(NC(=O)C2CCCN2S(=O)(=O)c2ccc3nc(-c4ccccc4)[nH]c3c2)cc1F` (configuration not stated), the activation is reported as inactive: 47.1%.
For `Cc1ccc(C)c(CSc2ccc3nnc(CCNS(=O)(=O)c4ccccc4)n3n2)c1`, the activation was inactive: 2%.
With `COc1ccc(OC)c(Nc2ncnc3c2cnn3-c2cccc(Cl)c2)c1` the activation was inactive: -4.11%.
`Cc1ccn2c(Nc3ccc(F)cc3)c(-c3ccccn3)nc2c1` was tested, and the activation was inactive: -64.1%.
With `O=C(Cn1nc(-c2ccccc2)nc(Cc2ccccc2)c1=O)Nc1ccccc1` the activation was inactive: -12.5%.
`CCCCC(=O)OC1=C(C(C)=O)N(Cc2ccccc2)S(=O)(=O)c2ccccc21` was tested, and the activation was inactive: -7.4%.
With `CCOC(=O)c1cccc(NC(=O)CCc2c(C)nn(-c3ccc(N4CCCC4)nn3)c2C)c1` the activation was inactive: -7.27%.
`Cc1ccc(OCC(=O)NCC2(N3CCOCC3)CCCCC2)cc1C` was tested, and the activation was inactive: -22%.
In the case of `Cc1ccc(-c2nc3ccccc3s2)cc1NC(=O)COc1ccccc1`, the activation is reported as inactive: 17.7%.
For `CCOc1ccc(/C=C/c2nc(C#N)c(N3CCCCC3)o2)cc1`, the activation was inactive: -18.8%.
With `CCCN(CCC)CCNC(=O)CN1C(=O)COc2ccc(S(=O)(=O)N3CCC(C)CC3)cc21` the activation was inactive: -7.14%.
`CCCCN(CCCC)CCNC(=O)c1cn(CC)c2ccc(S(=O)(=O)N3CCc4ccccc4C3)cc2c1=O` was tested, and the activation was inactive: 12.1%.
`Cc1oc(-c2cccc(Cl)c2)nc1CN1CCC(C(=O)NCCCN2CCN(c3ccccc3F)CC2)CC1` was tested, and the activation was inactive: -4.44%.
In the case of `CCOC(=O)CSc1nc2c([nH]c3ccccc32)c(=O)n1-c1ccc(OC)cc1`, the activation is reported as inactive: -16.8%.
In the case of `CCOC(=O)Cn1nc(-c2ccccc2)c2cnc3ccc(OCC)cc3c21`, the activation is reported as inactive: -7.6%.
For `O=C(CN(CCc1ccccc1)S(=O)(=O)c1ccc(Br)cc1)NCc1ccc(Cl)cc1`, the activation was inactive: -5%.
With `CCC1CN(C(=O)C2CCN(S(=O)(=O)c3c(C)noc3/C=C/c3ccccc3F)CC2)c2cc(Cl)ccc2O1` (configuration not stated) the activation was inactive: -23.8%.
In the case of `COc1ccc(N(Cc2cccs2)C(=O)c2ccc(Br)o2)cc1`, the activation is reported as inactive: -30.7%.
`COc1ccc(NC(=O)C2CCCN(S(=O)(=O)c3ccc4c(c3)CCCC(=O)N4)C2)cc1OC` (configuration not stated) was tested, and the activation was active: 63.4%.
With `Cc1ccc2c(=O)cc(C(=O)Nc3ccc(S(=O)(=O)Nc4nc(C)cc(C)n4)cc3)oc2c1` the activation was inactive: -8.46%.
In the case of `CCc1ccc(NC(=O)CSC2=Nc3ccccc3C3=NC(CC(=O)NC4CCCCC4)C(=O)N23)cc1` (configuration not stated), the activation is reported as inactive: -6.13%.
`CCCOC(=O)c1ccccc1` was tested, and the activation was inactive: 47.7%.
`CCOc1cc(C2C(C(=O)Nc3ccc(OC)cc3)=C(C)Nc3nc(SC)nn32)ccc1O` (configuration not stated) was tested, and the activation was inactive: -19.7%.
For `O=C(C1CCN(c2ncnc3c2nc2n3CCCCC2)CC1)N1CCN(c2ccc(F)cc2)CC1`, the activation was inactive: -4.19%.
For `CC(C)CC(=O)Nc1ccc2nc(SCC(=O)N3CCCC3)sc2c1`, the activation was inactive: -1.24%.
With `COc1ccc(NC(=O)N2CCc3c(sc4c3CCCC4)C2c2ccccc2OC)cc1` (configuration not stated) the activation was inactive: -16.2%.
`CCOC(=O)c1c(C)sc(-c2c(-c3cc(C)ccc3C)[nH]c3c2c(=O)n(C)c(=O)n3C)c1O` was tested, and the activation was inactive: -39.6%.
With `Cc1ccc(NC(=O)CCn2nc(C)c(S(=O)(=O)N3CCCCC3)c2C)cc1Cl` the activation was inactive: 3.6%.
For `CCOc1ccc(N(CC(=O)Nc2cc(C)ccc2C)S(=O)(=O)c2c(C)[nH]c(=O)[nH]c2=O)cc1`, the activation was inactive: -2.75%.
With `CCN(c1ccc(C)cc1)S(=O)(=O)c1nnc(NC(=O)C2CCCCC2)s1` the activation was inactive: -24.6%.
For `CCCNC(=O)CSc1nc2ccccc2nc1Cc1ccc(Cl)cc1`, the activation was inactive: -1.35%.
In the case of `Cc1ccc(C)c(CN2C(=O)c3ccccc3S(=O)(=O)c3ccc(C(=O)N4CCc5ccccc54)cc32)c1`, the activation is reported as inactive: -25.9%.
In the case of `Cc1ccc(OCC(=O)NCC(c2ccc(Cl)cc2)N2CCCCC2)cc1` (configuration not stated), the activation is reported as inactive: -12.2%.
With `CCC1=Nc2cc(C(=O)NCC(C)c3ccccc3)ccc2Sc2ccc(C)cc21` (configuration not stated) the activation was inactive: -25.1%.
With `Cc1ccc(CCNC(=O)c2cn(C)c3ccc(S(=O)(=O)N(C)C4CCCCC4)cc3c2=O)cc1` the activation was inactive: -8.65%.
In the case of `COc1ccc(-n2c(C)c(C(C)=O)c3cc(OC(=O)c4ccc(C)cc4)ccc32)cc1`, the activation is reported as inactive: 9.77%.
`CCOC(=O)c1ccc(OCC2c3cc(OC)c(OC)cc3CCN2C(=O)c2ccc(S(=O)(=O)N3CCCC3)cc2)cc1` (configuration not stated) was tested, and the activation was inactive: -2.78%.
`CCn1c(CNC(=O)c2ccc(OC)cc2)nnc1SCC(=O)Nc1ccccc1` was tested, and the activation was inactive: 22.1%.
